Source: PubChem BioAssay AID360 (National Center for Advancing Translational Sciences (NCATS), 2006)
In all, about 48,000 compounds went through this assay and about 550 (1.1%) were called active. About 4% were inconclusive and are not listed. Rule as the data show it: active = potency below about 15 µM; inconclusive = mostly about 16 µM to 33 µM; inactive = weaker than that. Some of the results follow.

The molecules below were run against Lysosomal acid glucosylceramidase (Homo sapiens) (UniProt P04062) (assay: Glucocerebrosidase). Conditions: purified enzyme, resorufin glucoside fluorescence (screen aimed at inhibitors), 20 min; series mostly up to 77 µM.
How it was run: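 Compounds titrated against 0.2 nM normal enzyme, 30 uM resorufin beta-D-glucopyranoside substrate, citrate/phosphate buffer with taurocholate and tween-20, pH 5.9. Reaction ran 20 min at room temperature; fluorescence (Ex 548/Em 600) gave AC50.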
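Also: the screen sought inhibitors.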
Potency is read from the fitted curve at half-maximal effect.

Sequence of UniProt P04062 (P04062 whole entry, looked up): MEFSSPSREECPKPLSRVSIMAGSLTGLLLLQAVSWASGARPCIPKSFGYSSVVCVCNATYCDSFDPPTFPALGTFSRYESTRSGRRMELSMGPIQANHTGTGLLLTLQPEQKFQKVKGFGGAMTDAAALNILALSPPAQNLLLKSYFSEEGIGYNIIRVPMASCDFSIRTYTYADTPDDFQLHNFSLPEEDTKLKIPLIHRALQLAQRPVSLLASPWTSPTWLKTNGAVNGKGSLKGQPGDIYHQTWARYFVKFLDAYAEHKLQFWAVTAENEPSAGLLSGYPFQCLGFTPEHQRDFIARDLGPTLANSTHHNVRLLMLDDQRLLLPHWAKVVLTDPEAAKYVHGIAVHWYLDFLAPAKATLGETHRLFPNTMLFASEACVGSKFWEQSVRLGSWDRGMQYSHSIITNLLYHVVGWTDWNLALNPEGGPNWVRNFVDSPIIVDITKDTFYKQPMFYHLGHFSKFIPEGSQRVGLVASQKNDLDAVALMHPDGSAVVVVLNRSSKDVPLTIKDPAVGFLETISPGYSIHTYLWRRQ

Potency, inactive:
CCN(CC)C(=O)C1CCN(Cc2cccc(OCc3ccccc3)c2)CC1 > 76.9 µM
COc1ccc(CN(Cc2ccccn2)C(=O)CN2C(=O)C(C)Oc3ccccc32)cc1 (stereo unspecified) > 76.9 µM
Cn1c(=O)c2ncn(CC(=O)NCCC3=CCCCC3)c2n(C)c1=O > 76.9 µM
CCc1ccc(N(C(C)=O)C2C=CS(=O)(=O)C2)cc1 (stereo unspecified) > 76.9 µM
O=c1c2ccccc2nnn1CSc1nnc(-c2ccco2)o1 > 76.9 µM
COc1ccc(C(C(=O)OCCN(C)C)c2ccccc2)cc1 (stereo unspecified) > 76.9 µM
O=C(NCCCN1CCOCC1)c1c(F)cccc1F > 76.9 µM
Cc1ccc(C)c(C(=O)C(C)OC(=O)c2cccn2C)c1 (stereo unspecified) > 76.9 µM
COc1ccc(OC)c(NC(=O)CN2CCC(C(=O)c3ccc(C)cc3)CC2)c1 > 76.9 µM
O=C(O)c1ccc(N2CCCC2=O)cc1 > 76.9 µM
CCc1c(C)nc2ncnn2c1N1CCCC(C(=O)NCc2ccco2)C1 (stereo unspecified) > 76.9 µM
CCn1c(SCC(=O)NCC2CCCO2)nc2cc(S(=O)(=O)N3CCCCC3)ccc21 (stereo unspecified) > 76.9 µM
O=C(Nc1cnc2ccccn2c1=O)c1ccc(F)cc1 > 76.9 µM
O=S(=O)(c1ccc2c(c1)OCCO2)N1CCC(n2nnc3cc(C(F)(F)F)ccc32)CC1 > 76.9 µM
COc1ccc(-c2cc(C(=O)Nc3cc(C)n(Cc4ccc(Cl)cc4)n3)no2)cc1OC > 76.9 µM
O=C(c1ccco1)N1CCN(S(=O)(=O)c2ccc(S(=O)(=O)NC3CCCC3)cc2)CC1 > 76.9 µM
COC(=O)c1ccnc(/C=N/O)c1 > 76.9 µM
Cc1ccc2[nH]c(=O)c(CN(Cc3nnnn3Cc3ccccc3)C3CCCC3)cc2c1 > 76.9 µM
CN(Cc1ccccc1)C(=O)CNC(=O)Cn1cnc2ccccc2c1=O > 76.9 µM
O=C(Nc1ccc(NC(=O)C2CC2)nc1)c1ccccn1 > 76.9 µM
CC1Cc2ccccc2N1C(=O)CN1C(=O)NC(C)(c2ccc3c(c2)OCCO3)C1=O (stereo unspecified) > 76.9 µM
CC1CCc2c(sc(NC(=O)c3ccc(Cn4cc(Br)cn4)o3)c2C(N)=O)C1 (stereo unspecified) > 76.9 µM
Cc1cc(S(=O)(=O)n2cnc3ccccc32)c(C)cc1Cl > 76.9 µM
COc1ccc(CNc2nc3c(c(=O)n(Cc4ccc(F)cc4)c(=O)n3C)n2C)cc1 > 76.9 µM
CCS(=O)(=O)N1CCN(Cc2nc3ccccc3c(=O)[nH]2)CC1 > 76.9 µM
COc1ccccc1C(=O)Nc1ccc2c(c1)nc(CCNC(C)=O)n2C > 76.9 µM
c1ccc(-n2nnnc2Sc2n[nH]c(-c3ccncc3)n2)cc1 > 76.9 µM
COc1ccc(CC(=O)Nc2ccc3c(c2)OCO3)cc1S(=O)(=O)N1CCOCC1 > 76.9 µM
CCn1cc(C(=O)NCc2ccc3c(c2)OCO3)c(=O)c2cc(S(=O)(=O)N3CCOCC3)ccc21 > 76.9 µM
Cc1ccc(O)c(NC(=O)COc2cc(C)ccc2C)c1 > 76.9 µM
Cc1ccc(-c2nc3ccccc3n3nnnc23)cc1 > 76.9 µM
CN1C(=O)N(C)C2C1NC(=O)N2C (stereo unspecified) > 76.9 µM
N#CCCN(C(=O)COC(=O)c1ccc2c(c1)NC(=O)CS2)c1ccc2c(c1)OCCO2 > 76.9 µM
CN1CCN(S(=O)(=O)c2ccc(SCCOc3ccccc3)nc2)CC1
CN(C)c1ccc(C(C(=O)NC(C)(C)C)N(C(=O)c2csnn2)C2CC2)cc1 (stereo unspecified) > 76.9 µM
CCCC(C(=O)NCC1CCCO1)N(Cc1ccco1)C(=O)CNS(=O)(=O)c1ccccc1 (stereo unspecified) > 76.9 µM
O=C(CN1CCC(O)(c2ccc3c(c2)OCO3)CC1)N1CCOCC1 > 76.9 µM
Cn1cc(C(=O)NC2CCCCC2)c(=O)c2cc(S(=O)(=O)N3CCCC3)ccc21 > 76.9 µM
NC(=O)C1(N2CCCCC2)CCN(C(=O)c2ccc(-n3cnnn3)cc2)CC1 > 76.9 µM
C=CCC(NCc1ccccc1)c1ccco1 (stereo unspecified) > 76.9 µM
Cc1ccc(C)c(NC(=O)CN(C)S(=O)(=O)c2ccccc2)c1 > 76.9 µM
CCCC(=O)NCCCc1nc2ccccc2n1CCC > 76.9 µM
O/N=C(\Cc1cscn1)c1ccc(O)cc1O > 76.9 µM
CCS(=O)(=O)N1CCN(S(=O)(=O)c2ccc(F)cc2)CC1 > 76.9 µM
Clc1ccccc1Nc1c2c(nc3ncnn13)CCC2 > 76.9 µM
CCNC(=O)NC(=O)COC(=O)CCCSc1nc2ccccc2[nH]1 > 76.9 µM
CC1CCCCN1C(=O)Cn1nnc(-c2cccnc2)n1 (stereo unspecified) > 76.9 µM
CCCCN(C)CCNC(=O)c1ccc2c(c1)NC(=O)C(N1CCCCC1)S2 (stereo unspecified) > 76.9 µM
Nc1ccccc1NC(=O)c1ccccc1N > 76.9 µM
COc1ccc(C2C(C(=O)N3CCOCC3)c3ccccc3C(=O)N2c2ccc(OC)cc2)cc1 (stereo unspecified) > 76.9 µM
CC(C(=O)NCc1ccc2c(c1)OCO2)N(c1ccccc1)S(C)(=O)=O (stereo unspecified) > 76.9 µM
CCOC(=O)C1CCN(Cc2cn[nH]c2-c2ccc(C)cc2)CC1 > 76.9 µM
O=C(CN1C(=O)c2ccccc2S1(=O)=O)NCCC1=CCCCC1 > 76.9 µM
O=S(=O)(NCC1CCCO1)c1ccc2c(c1)OCCO2 (stereo unspecified) > 76.9 µM
CCOC(=O)N1CCN(C(=O)Cn2ccc3ccccc3c2=O)CC1 > 76.9 µM
COc1ccc(OC)c(NC(=O)C2C3C=CC(C3)C2C(=O)NCc2ccccn2)c1 (stereo unspecified) > 76.9 µM
COC(=O)CN(c1ccc2c(c1)OCCO2)S(=O)(=O)c1ccccc1 > 76.9 µM
CCN(CC(=O)Nc1ccc2c(c1)OCCO2)c1ccc(S(=O)(=O)N2CCOCC2)cn1 > 76.9 µM
CC(NC(=O)C1CCC1)c1ccccc1 (stereo unspecified) > 76.9 µM
CC1Cc2ccccc2N1C(=O)c1cccnc1 (stereo unspecified) > 76.9 µM
CC[N+](CC)(CCO)CCCN1C(=O)C2CC=C(Cl)CC2C1=O (stereo unspecified) > 76.9 µM
CCCCCNC(=O)CCCCn1c(=O)[nH]c2cc(OCC)c(OCC)cc2c1=O > 76.9 µM
COc1ccc(CC(=O)NC2CCN(Cc3nnnn3C(C)(C)C)CC2)cc1OC > 76.9 µM
O=C(CN1C(=O)NC2NC(=O)NC21)NC1CCCCC1 (stereo unspecified) > 76.9 µM
Cc1occc1C(=O)Nc1ccc2c(c1)CCC2 > 76.9 µM
COc1ccc(Cl)cc1NC(=O)COc1cccc(-n2cnnn2)c1 > 76.9 µM
COc1ccccc1NC(=O)N1CCCC1C(=O)NCc1ccccc1 (stereo unspecified) > 76.9 µM
O=C(Nc1ccccc1N1CCN(C(=O)c2ccc(Cl)cc2)CC1)c1ccc2c(c1)OCO2 > 76.9 µM
COc1cc2c(cc1OC)C(c1ccc(N(C)C)cc1)CC(=O)N2 (stereo unspecified) > 76.9 µM
O=C(NCc1ccco1)C1CCCN(S(=O)(=O)c2cccc3nonc23)C1 (stereo unspecified) > 76.9 µM
CCn1cc(Br)c(C(=O)NC(C)c2ccccc2)n1 (stereo unspecified) > 76.9 µM
CC1(C)N=C(c2ccc(Cl)cc2Cl)C(=O)N1 > 76.9 µM
CCC(=O)NCCCOc1ccccc1 > 76.9 µM
NC(=O)CSCc1c(Cl)cccc1Cl > 76.9 µM
Brc1ccc(C2=Nn3c(nnc3-c3ccncc3)SC2)cc1 > 76.9 µM
CCOC(=O)c1c(NC(=O)CSc2n[nH]c(-c3ccco3)n2)sc(C)c1C > 76.9 µM
CS(=O)(=O)N(CC(=O)NC1CCCC1)c1ccc2c(c1)OCCO2 > 76.9 µM
COc1cc2[nH]c(=O)n(CCC(=O)NC3CCCC3)c(=O)c2cc1OC > 76.9 µM
O=C1N(CC(=O)N2CCc3ccccc32)CCN1Cc1ccccc1Cl > 76.9 µM
CCC1CCCCN1CCCn1c(=S)[nH]c2ccccc2c1=O (stereo unspecified) > 76.9 µM
COc1ccc(-c2noc(CSc3nnc(-c4ccncc4)n3-c3ccc(F)cc3)n2)cc1OC > 76.9 µM
Cc1cc(C(F)(F)F)nc(SCC(=O)Nc2ccccc2)n1 > 76.9 µM
CCn1c(C(C)NC(=O)Cc2ccccc2)nc2ccccc21 (stereo unspecified) > 76.9 µM
c1cncc(-c2nc(N3CCCCCC3)c3ccccc3n2)c1 > 76.9 µM
COc1ccc(S(=O)(=O)Nc2cc(C)c(O)cc2C(C)C)cc1 > 76.9 µM
CCSC1(SCC)N=C(N)C2(C#N)C(c3ccccc3)NC(C)=C(C)C12C#N (stereo unspecified) > 76.9 µM
CN(C)/C=C1/Nc2ccccc2C1=O > 76.9 µM
Cc1cc(C)nc(SCc2nnc(SCC(=O)N3CCOCC3)o2)n1 > 76.9 µM
Cc1c(C(=O)OCc2ccccc2)nnn1-c1nonc1N > 76.9 µM
COc1cc2[nH]c(=S)n(CCCN3CCOCC3)c(=O)c2cc1OC > 76.9 µM
CCOC(=O)N1CCN(Cc2nc(N)nc(Nc3ccc(Oc4ccccc4)cc3)n2)CC1
